The values below come from publication PMC6276216.

Sequences of proteins named here, by UniProt entry; tags and fusion partners are left off. A change or cut given only in a name is not applied to a line headed by its entry. A line that says so, or that is headed by a name, gives the form on record, which may keep a tag or linker.
HaloTag-ARNT isoform 6 (P27540, form named): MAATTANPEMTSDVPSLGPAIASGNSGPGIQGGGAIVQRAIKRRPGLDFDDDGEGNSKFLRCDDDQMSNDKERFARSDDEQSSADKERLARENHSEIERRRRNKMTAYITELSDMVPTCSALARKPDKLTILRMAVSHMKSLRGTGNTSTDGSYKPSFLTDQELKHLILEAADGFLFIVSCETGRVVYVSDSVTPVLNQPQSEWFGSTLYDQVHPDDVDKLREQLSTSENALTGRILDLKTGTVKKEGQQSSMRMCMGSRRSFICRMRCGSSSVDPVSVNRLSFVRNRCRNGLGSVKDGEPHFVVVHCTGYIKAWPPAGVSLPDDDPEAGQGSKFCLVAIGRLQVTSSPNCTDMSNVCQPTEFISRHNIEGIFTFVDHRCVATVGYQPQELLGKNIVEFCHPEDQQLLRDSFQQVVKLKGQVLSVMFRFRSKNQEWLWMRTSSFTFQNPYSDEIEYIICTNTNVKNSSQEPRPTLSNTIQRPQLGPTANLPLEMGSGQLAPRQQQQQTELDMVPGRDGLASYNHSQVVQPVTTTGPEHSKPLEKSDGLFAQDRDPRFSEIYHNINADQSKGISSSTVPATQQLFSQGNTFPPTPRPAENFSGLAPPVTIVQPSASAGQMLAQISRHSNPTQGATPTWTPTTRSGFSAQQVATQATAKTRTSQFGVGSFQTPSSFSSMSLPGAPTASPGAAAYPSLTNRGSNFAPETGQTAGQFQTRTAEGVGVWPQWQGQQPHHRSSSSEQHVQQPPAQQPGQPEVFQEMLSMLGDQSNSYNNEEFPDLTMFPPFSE

The labels stand for the following.
B1: HA-NPAS3 PAS domains (residues 116–450) (domain or fragment, UniProt Q8IXF0-1 116-450)
chain: LRMEGPPPNTSVKVIGAQRRRSPSALAIEVFEAHLGSHILQSLDGFVFALNQEGKFLYISETVSIYLGLSQVELTGSSVFDYVHPGDHVEMAEQLGMKLPPGRGLLSQGTAEDGASSASSSSQSETPEPVESTSPSLLTTDNTLERSFFIRMKSTLTKRGVHIKSSGYKVIHITGRLRLRVSLSHGRTVPSQIMGLVVVAHALPPPTINEVRIDCHMFVTRVNMDLNIIYCENRISDYMDLTPVDIVGKRCYHFIHAEDVEGIRHSHLDLLNKGQCVTKYYRWMQKNGGYIWIQSSATIAINAKNANEKNIIWVNYLLSNPEYKDTPMDIAQLPH
B2: HA-NPAS3 isoform 1 (933 aa) (protein, UniProt Q8IXF0-1 1-933)
chain: MAPTKPSFQQDPSRRERITAQHPLPNQSECRKIYRYDGIYCESTYQNLQALRKEKSRDAARSRRGKENFEFYELAKLLPLPAAITSQLDKASIIRLTISYLKMRDFANQGDPPWNLRMEGPPPNTSVKVIGAQRRRSPSALAIEVFEAHLGSHILQSLDGFVFALNQEGKFLYISETVSIYLGLSQVELTGSSVFDYVHPGDHVEMAEQLGMKLPPGRGLLSQGTAEDGASSASSSSQSETPEPVESTSPSLLTTDNTLERSFFIRMKSTLTKRGVHIKSSGYKVIHITGRLRLRVSLSHGRTVPSQIMGLVVVAHALPPPTINEVRIDCHMFVTRVNMDLNIIYCENRISDYMDLTPVDIVGKRCYHFIHAEDVEGIRHSHLDLLNKGQCVTKYYRWMQKNGGYIWIQSSATIAINAKNANEKNIIWVNYLLSNPEYKDTPMDIAQLPHLPEKTSESSETSDSESDSKDTSGITEDNENSKSDEKGNQSENSEDPEPDRKKSGNACDNDMNCNDDGHSSSNPDSRDSDDSFEHSDFENPKAGEDGFGALGAMQIKVERYVESESDLRLQNCESLTSDSAKDSDSAGEAGAQASSKHQKRKKRRKRQKGGSASRRRLSSASSPGGLDAGLVEPPRLLSSPNSASVLKIKTEISEPINFDNDSSIWNYPPNREISRNESPYSMTKPPSSEHFPSPQGGGGGGGGGGGLHVAIPDSVLTPPGADGAAARKTQFGASATAALAPVASDPLSPPLSASPRDKHPGNGGGGGGGGGGAGGGGPSASNSLLYTGDLEALQRLQAGNVVLPLVHRVTGTLAATSTAAQRVYTTGTIRYAPAEVTLAMQSNLLPNAHAVNFVDVNSPGFGLDPKTPMEMLYHHVHRLNMSGPFGGAVSAASLTQMPAGNVFTTAEGLFSTLPFPVYSNGIHAAQTLERKED
B3: HA-NPAS3 isoform 1 p.Val304Ile (protein, UniProt Q8IXF0-1 1-933)
chain: B2 chain with V304I
B4: HA-NPAS3 isoform 1 p.Ala552Pro (protein, UniProt Q8IXF0-1 1-933)
chain: B2 chain with A552P

Changes are numbered by the printed parent chain. These are yes or no findings as the source states them, for the method shown. In cells and extracts the contact can be indirect. Some entries that bind do so weakly or less than the wild type. Sequences can lack the tags named with a protein.

For this assay, the target named is HaloTag-ARNT isoform 6 (human) (UniProt P27540). The experiment in a line: pull-down; HaloTag Mammalian Pull-Down (Promega): HaloTag-ARNT isoform 6 covalently linked to the resin, HA-tagged NPAS3 construct as prey; lysates of transfected HEK 293T cells; western blot of input, unbound and pull-down samples.
Consider B1, for which the binding entry is reported as “no binding”.

For the molecule B2, the binding result is “binds”.

Turning to B3, the binding result is given as “binds”.

On to B4, for which the binding result is given as “binds”.
